{"source": "paper PMC4336329", "about": "(PLoS ONE, 2015)", "note": "In all, about 310,000 compounds went through this assay and about 2,200 (0.71%) showed an effect of 50% or more. Effects have a minus sign here. The list shows a part of the results.", "data": [{"biological_target": "human ether-à-go-go-related gene (hERG) potassium channel (human, UniProt Q12809)", "sequence (Q12809 whole entry, looked up)": "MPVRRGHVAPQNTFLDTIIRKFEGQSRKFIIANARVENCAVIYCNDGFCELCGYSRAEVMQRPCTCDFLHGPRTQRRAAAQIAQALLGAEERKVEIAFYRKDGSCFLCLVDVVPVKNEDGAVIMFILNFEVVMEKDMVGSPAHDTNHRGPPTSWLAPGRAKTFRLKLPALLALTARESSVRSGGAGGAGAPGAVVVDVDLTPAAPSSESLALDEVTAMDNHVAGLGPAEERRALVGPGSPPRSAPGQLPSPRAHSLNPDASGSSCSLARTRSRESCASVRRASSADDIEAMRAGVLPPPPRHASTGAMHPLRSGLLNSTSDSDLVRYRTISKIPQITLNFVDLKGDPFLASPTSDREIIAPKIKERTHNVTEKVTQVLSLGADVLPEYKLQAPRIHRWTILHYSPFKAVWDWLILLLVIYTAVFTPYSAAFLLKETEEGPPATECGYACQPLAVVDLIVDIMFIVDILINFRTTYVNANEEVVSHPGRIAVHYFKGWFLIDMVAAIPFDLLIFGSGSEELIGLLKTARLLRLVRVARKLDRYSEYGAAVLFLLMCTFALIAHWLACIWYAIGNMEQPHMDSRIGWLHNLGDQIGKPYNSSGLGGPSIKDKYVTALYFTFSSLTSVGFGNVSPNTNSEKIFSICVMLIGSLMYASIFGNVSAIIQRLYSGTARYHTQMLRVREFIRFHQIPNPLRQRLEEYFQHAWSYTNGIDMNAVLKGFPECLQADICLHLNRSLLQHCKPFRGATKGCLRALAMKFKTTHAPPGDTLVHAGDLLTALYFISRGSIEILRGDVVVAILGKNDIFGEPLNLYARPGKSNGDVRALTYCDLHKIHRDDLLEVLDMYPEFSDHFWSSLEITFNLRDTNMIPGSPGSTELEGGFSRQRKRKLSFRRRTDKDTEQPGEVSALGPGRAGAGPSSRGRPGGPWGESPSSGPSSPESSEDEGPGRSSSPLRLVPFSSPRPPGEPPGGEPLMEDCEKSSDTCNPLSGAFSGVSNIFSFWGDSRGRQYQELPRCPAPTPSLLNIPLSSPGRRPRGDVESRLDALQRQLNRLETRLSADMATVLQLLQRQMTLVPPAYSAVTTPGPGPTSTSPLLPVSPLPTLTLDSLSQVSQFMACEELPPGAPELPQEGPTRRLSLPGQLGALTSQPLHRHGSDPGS", "experiment": "primary screen, population patch clamp on CHO cells stably expressing hERG", "units": {"hERG current change (%, negative = inhibition) at 1uM": "%"}, "values": [{"smiles": "Nc1ccc(Cc2nc3cc4ccccc4cc3[nH]2)cc1", "hERG current change (%, negative = inhibition) at 1uM": 6.8}, {"smiles": "Cc1cc2cc(CN(Cc3ccco3)S(=O)(=O)c3c(C)ccc4nsnc34)c(=O)[nH]c2cc1C", "hERG current change (%, negative = inhibition) at 1uM": 5.26}, {"smiles": "COc1ccc(NS(=O)(=O)c2cccc(C(=O)N/N=C(\\C)c3ccc(-n4ccnc4)cc3)c2)cc1", "hERG current change (%, negative = inhibition) at 1uM": 12.8}, {"smiles": "CCOC(=O)N1CCN(C(=O)CSCC(=O)Nc2nc(-c3ccccc3)cs2)CC1", "hERG current change (%, negative = inhibition) at 1uM": -15.6}, {"smiles": "Cc1cccc([C@@H]2[C@@H]3C(=O)N(Cc4ccccc4)C(=O)[C@@H]3[C@]3(C)C(=O)N(c4cccc(F)c4)C(=O)N23)c1", "hERG current change (%, negative = inhibition) at 1uM": 11.5}, {"smiles": "COc1ccccc1C(=O)Nc1nnc(-c2ccco2)s1", "hERG current change (%, negative = inhibition) at 1uM": 13.9}, {"smiles": "CCOC(=O)c1sc2nccc(N(C)C)c2c1N=CN(C)C", "hERG current change (%, negative = inhibition) at 1uM": -1.29}, {"smiles": "O=C(Nc1ccccc1C(=O)N1CCCCC1)c1cc(F)c(F)cc1Cl", "hERG current change (%, negative = inhibition) at 1uM": 9.94}, {"smiles": "C/C=C/C1=CC(=O)C[C@H](c2ccc(F)cc2)C1", "hERG current change (%, negative = inhibition) at 1uM": -6.97}, {"smiles": "Fc1cc(F)nc(NCc2ccccc2)n1", "hERG current change (%, negative = inhibition) at 1uM": 3.57}, {"smiles": "O=C(CSc1nnc(Cc2ccccc2)n1Cc1ccccc1)NCc1ccco1", "hERG current change (%, negative = inhibition) at 1uM": -7.28}, {"smiles": "CCOc1cccc(CNCCNC(=O)c2nonc2N)c1.Cl", "hERG current change (%, negative = inhibition) at 1uM": -3.46}, {"smiles": "CCCn1c(SCC(=O)Nc2ccccc2N2CCOCC2)nc2c1c(=O)n(C)c(=O)n2C", "hERG current change (%, negative = inhibition) at 1uM": 0.825}, {"smiles": "COc1ccc(N(C(=O)Cn2nnc3ccccc32)C(C(=O)NCc2ccco2)c2ccncc2)cc1", "note": "(stereo not drawn)", "hERG current change (%, negative = inhibition) at 1uM": 6.1}, {"smiles": "O=C(NC1CCCC1)C1CCCN(C(=O)Nc2ccccc2)C1", "note": "(stereo not drawn)", "hERG current change (%, negative = inhibition) at 1uM": 12.4}, {"smiles": "Cc1cc(=O)oc2cc(OCC(=O)Nc3cccc(S(=O)(=O)N(C)C)c3)ccc12", "hERG current change (%, negative = inhibition) at 1uM": 9.74}, {"smiles": "Cl.FC(F)(F)c1cccc(C2NCc3ccccc3-n3cccc32)c1", "note": "(stereo not drawn)", "hERG current change (%, negative = inhibition) at 1uM": 13.7}, {"smiles": "COc1ccc(OCC(=O)NNC(=O)c2ccccc2OCc2c(C)noc2C)cc1", "hERG current change (%, negative = inhibition) at 1uM": 4.76}, {"smiles": "COc1ccccc1C/C(N)=N/OC(=O)c1cccc([N+](=O)[O-])c1C", "hERG current change (%, negative = inhibition) at 1uM": 1.57}, {"smiles": "CN1C(=O)/C(=C/c2ccc(O)c([N+](=O)[O-])c2)NC1=S", "hERG current change (%, negative = inhibition) at 1uM": 12.1}, {"smiles": "COc1c(F)c(F)c(C(=O)Nc2ccc(NC(=O)Cc3ccccc3)cc2)c(F)c1F", "hERG current change (%, negative = inhibition) at 1uM": 25.2}, {"smiles": "CP(=O)(O)CN1CCCCC1", "hERG current change (%, negative = inhibition) at 1uM": 4.45}, {"smiles": "CCOC(=O)Cc1csc(NC(=O)/C=C\\c2ccccc2)n1", "hERG current change (%, negative = inhibition) at 1uM": 3.99}, {"smiles": "CN(CC(=O)Nc1ccccc1Cl)C1CCS(=O)(=O)C1", "note": "(stereo not drawn)", "hERG current change (%, negative = inhibition) at 1uM": -0.783}, {"smiles": "Cn1c(=O)c2cn3c(c2n(C)c1=O)C(c1ccccc1)CC(c1ccccc1)=N3", "note": "(stereo not drawn)", "hERG current change (%, negative = inhibition) at 1uM": 3.12}, {"smiles": "COC(=O)C1(C(F)(F)F)C2C=CC(C2)N1S(=O)(=O)c1ccc(C)cc1", "note": "(stereo not drawn)", "hERG current change (%, negative = inhibition) at 1uM": 15.3}, {"smiles": "CCOc1ccc(N(CC(=O)NCCSCc2ccco2)S(=O)(=O)c2ccc(F)cc2)cc1", "hERG current change (%, negative = inhibition) at 1uM": 1.39}, {"smiles": "CC(C)OC(=O)c1cccc2c1C(=O)c1ccccc1-2", "hERG current change (%, negative = inhibition) at 1uM": 17.4}, {"smiles": "COc1ccc(N2C(=O)[C@@H]3[C@H](C2=O)[C@H](C(=O)c2ccc(OC(C)=O)cc2)N2N=CC=C[C@@H]32)cc1", "hERG current change (%, negative = inhibition) at 1uM": 7.92}, {"smiles": "CCOC(=O)c1[nH]c2ccc(F)cc2c1NC(=O)C(C)N1CCc2cc(OC)c(OC)cc2C1", "note": "(stereo not drawn)", "hERG current change (%, negative = inhibition) at 1uM": 10.3}, {"smiles": "COc1ccc(C(C)=O)cc1COc1ccc(-n2cnnn2)cc1", "hERG current change (%, negative = inhibition) at 1uM": 0.467}, {"smiles": "Cc1ccc(S(=O)(=O)NC(=NC2CCCCC2)c2ccc(Cl)cc2)cc1", "hERG current change (%, negative = inhibition) at 1uM": 15}, {"smiles": "CCn1c(Cc2ccc(OC)cc2)nc2ccccc21", "hERG current change (%, negative = inhibition) at 1uM": 8.49}, {"smiles": "COCCN(C(=O)c1ccc2ccccc2c1)c1c(N)n(Cc2ccccc2)c(=O)[nH]c1=O", "hERG current change (%, negative = inhibition) at 1uM": 1.9}, {"smiles": "CN(CC(=O)NC1CCCCC1)S(=O)(=O)c1cccc2nsnc12", "hERG current change (%, negative = inhibition) at 1uM": 11}, {"smiles": "CCCCOc1ncnc2c1[nH]c1ccc(C)cc12", "hERG current change (%, negative = inhibition) at 1uM": 2.78}, {"smiles": "O=C(c1ccco1)N1CCN(c2cc(N3CCOCC3)c(F)cc2[N+](=O)[O-])CC1", "hERG current change (%, negative = inhibition) at 1uM": -12.4}, {"smiles": "O=C(c1cccnc1)N1CCN(c2ccccc2Cl)CC1", "hERG current change (%, negative = inhibition) at 1uM": 7.73}, {"smiles": "CC(C)(C)CNc1cc(N2CCOCC2)ccc1[N+](=O)[O-]", "hERG current change (%, negative = inhibition) at 1uM": 9.13}, {"smiles": "COc1ccc(Nc2nc(N)c([N+](=O)[O-])c(NCCO)n2)cc1", "hERG current change (%, negative = inhibition) at 1uM": 15.2}, {"smiles": "Cc1cc(=O)oc2c3c(cc(OCC(=O)NCc4ccccn4)c12)OC(C)(C)CC3", "hERG current change (%, negative = inhibition) at 1uM": 3.22}, {"smiles": "CC(C)C(NC(=O)c1cccs1)C(=O)NC1=NCCS1", "note": "(stereo not drawn)", "hERG current change (%, negative = inhibition) at 1uM": 3.38}, {"smiles": "COc1ccc(-c2[nH]ncc2CN2CCCC2c2nonc2C)c(F)c1", "note": "(stereo not drawn)", "hERG current change (%, negative = inhibition) at 1uM": 8.27}, {"smiles": "CC1(C)CC(=O)C2=C(C1)N(Cc1ccccc1)C(=O)C2(NC(=O)C(C)(C)C)C(F)(F)F", "note": "(stereo not drawn)", "hERG current change (%, negative = inhibition) at 1uM": -9.33}, {"smiles": "COc1cc(OC)cc(C(=O)N2CC(=O)Nc3ccccc32)c1", "hERG current change (%, negative = inhibition) at 1uM": 14}]}]}
